The whole screen tested about 150,000 compounds, of which about 540 (0.36%) showed an effect of 50% or more. The list shows a part of the results.
Tested on: Plasmodium falciparum
Assay: Primary screen in NF54 nanoGlo assay, in single point, at 2uM, 72h; a lower Z score goes with more inhibition
Format: functional, Erythrocyte
Details: timepoint 72 hour

Compared with Cc1ncccc1C(=O)N[C@@](C)(C(N)=O)c1cccc(Cl)c1, Cc1ccc(OCc2cccc(C(=O)N3CC(C)NC(C)C3)c2)cn1 (stereo unspecified) is higher in “% Inhibition” value: 4% for the first, 14% for the second.

Compared with Cc1oc2c(c1C(=O)NCCn1cncn1)C(=O)CCC2, CC1=C(C)CN(C(=O)Nc2cnc(C)nc2)CC1 is lower in “% Inhibition” value: -7% for the first, -17% for the second.

Going from CN(CCn1ccnc1)[C@H]1CCN(Cc2ccccc2)C1 to COc1ccccc1-c1cc(C(=O)N2CCN(Cc3ccccc3)CC2)nc2cc(-c3ccccc3)nn12, the “% Inhibition” value rises from -8% to 1%.

Going from CC1CN(C(=O)CCn2cnc3ccccc3c2=O)CC(C)N1 (stereo unspecified) to C[C@@H]1CC(=O)N[C@H](C(=O)N(Cc2ccncc2)Cc2cccs2)C1, the “% Inhibition” value rises from -12% to 2%.

Going from COc1ccc(OC)c(Nc2cc(C)nc3nnnn23)c1 to COc1cc(OC)c2[nH]c(=O)c(CCNS(=O)(=O)c3c(C)n[nH]c3C)cc2c1, the “% Inhibition” value falls from 37% to 5%.

Compared with Cc1ccsc1C(=O)Nc1ccc2c(c1)CCN2, Cc1cc2c(cc1S(=O)(=O)N1CCC[C@H]1C(=O)Nc1ccc3c(c1)OCCO3)OCC(=O)N2 is higher in “% Inhibition” value: -14% for the first, 3% for the second.

First: Cc1oc2ncnc(NC(=O)C3CC3c3ccco3)c2c1C (stereo unspecified)
Second: Cc1nc(C(=O)NCc2cn[nH]c2C)c(C)o1
The “% Inhibition” value of the first is higher: -11% for the first, -16% for the second.

Compared with Cc1nn(S(=O)(=O)N2CCCC2)c(C)c1Br, CCNC(=O)N1CCCC[C@@]1(C)c1noc(-c2ccc(F)cc2)n1 is higher in “% Inhibition” value: -8% for the first, 38% for the second.

Compared with CCc1cccc2c(C3=CCN(c4ccc5nnc(C(F)(F)F)n5n4)CC3)c[nH]c12, Cc1cccc(/N=C(\NC(=O)c2ccccc2)N2CCN(c3cc(C)ccc3C)CC2)c1 is lower in “% Inhibition” value: 11% for the first, 0% for the second.

Compared with O=C(C1CCC1)N1C[C@@H]2COc3ccccc3C[C@]2(CO)C1, CC(C)Cc1nnc(C[C@H]2CCN(C(=O)c3cnccn3)C2)o1 is higher in “% Inhibition” value: -5% for the first, -2% for the second.

Going from OC(CC#CCN1CCN(CC#CCC(O)(c2ccccc2)c2ccccc2)CC1)(c1ccccc1)c1ccccc1 to CC(=O)NC(Cc1nc(C(C)n2ccnc2)no1)c1ccc(C)cc1 (stereo unspecified), the “% Inhibition” value falls from -4% to -8%.

In the case of C=CCN1CC[C@H](n2cnc(C(C)C)cc2=O)C1=O, the “% Inhibition” value is reported as 0%.

Going from Cc1ncccc1C(=O)N[C@@](C)(C(N)=O)c1cccc(Cl)c1 to Cc1ccc(OCc2cccc(C(=O)N3CC(C)NC(C)C3)c2)cn1 (stereo unspecified), the Z score falls from -0.5 to -2.06.

Compared with Cc1oc2c(c1C(=O)NCCn1cncn1)C(=O)CCC2, CC1=C(C)CN(C(=O)Nc2cnc(C)nc2)CC1 is higher in Z score: 1.4 for the first, 1.53 for the second.

Compared with CN(CCn1ccnc1)[C@H]1CCN(Cc2ccccc2)C1, COc1ccccc1-c1cc(C(=O)N2CCN(Cc3ccccc3)CC2)nc2cc(-c3ccccc3)nn12 is lower in Z score: 1.44 for the first, -0.12 for the second.

First: CC1CN(C(=O)CCn2cnc3ccccc3c2=O)CC(C)N1 (stereo unspecified)
Second: C[C@@H]1CC(=O)N[C@H](C(=O)N(Cc2ccncc2)Cc2cccs2)C1
The Z score of the first is higher: 1.82 for the first, -0.36 for the second.

First: COc1ccc(OC)c(Nc2cc(C)nc3nnnn23)c1
Second: COc1cc(OC)c2[nH]c(=O)c(CCNS(=O)(=O)c3c(C)n[nH]c3C)cc2c1
The Z score of the first is lower: -4.93 for the first, -0.63 for the second.

Going from Cc1ccsc1C(=O)Nc1ccc2c(c1)CCN2 to Cc1cc2c(cc1S(=O)(=O)N1CCC[C@H]1C(=O)Nc1ccc3c(c1)OCCO3)OCC(=O)N2, the Z score falls from 1.45 to -0.57.

Going from Cc1oc2ncnc(NC(=O)C3CC3c3ccco3)c2c1C (stereo unspecified) to Cc1nc(C(=O)NCc2cn[nH]c2C)c(C)o1, the Z score rises from 1.5 to 2.05.

Going from Cc1nn(S(=O)(=O)N2CCCC2)c(C)c1Br to CCNC(=O)N1CCCC[C@@]1(C)c1noc(-c2ccc(F)cc2)n1, the Z score falls from 1.03 to -0.98.

First: CCc1cccc2c(C3=CCN(c4ccc5nnc(C(F)(F)F)n5n4)CC3)c[nH]c12
Second: Cc1cccc(/N=C(\NC(=O)c2ccccc2)N2CCN(c3cc(C)ccc3C)CC2)c1
The Z score of the first is lower: -2.04 for the first, -0.05 for the second.

First: O=C(C1CCC1)N1C[C@@H]2COc3ccccc3C[C@]2(CO)C1
Second: CC(C)Cc1nnc(C[C@H]2CCN(C(=O)c3cnccn3)C2)o1
The Z score of the first is higher: 0.74 for the first, 0.36 for the second.

Going from OC(CC#CCN1CCN(CC#CCC(O)(c2ccccc2)c2ccccc2)CC1)(c1ccccc1)c1ccccc1 to CC(=O)NC(Cc1nc(C(C)n2ccnc2)no1)c1ccc(C)cc1 (stereo unspecified), the Z score rises from 0.56 to 1.23.

Molecule C=CCN1CC[C@H](n2cnc(C(C)C)cc2=O)C1=O has a Z score of 0.06.

— ChEMBL document CHEMBL4888484, “Replenishing the malaria drug discovery pipeline: Screening and hit evaluation of the MMV Hit Generation Library 1 (HGL1) against asexual blood stage Plasmodium falciparum ,using a nano luciferase reporter read-out” (2022)
